# Screen size: about 280,000 compounds; about 1,100 (0.39%) were called active. The inconclusive results got no clear call from the source; some entries with a clear call stand among them for comparison. The call rests on the fitted dose curve; in most records, active means well fitted inhibition curve with a large enough effect; inconclusive means small, poorly fitted or top-dose-only effect, or effect the other way; inactive means flat fitted curve, though single readings scatter. No potency is given beside an inconclusive call; the fits are too rough.
# Biological target: Microtubule-associated protein tau (Homo sapiens) (UniProt P10636)
# Assay: qHTS for Inhibitors of Tau Fibril Formation, Fluorescence Polarization; further: nearly all actives have a fitted effect of over 55% in size
# Settings: K18 P301L tau heparin fibrillization, Alexa594 FP, 6 h; series mostly up to 57.7 µM; activity, negative = inhibition: at the top concentration
# Outline: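 FP of Alexa 594-tau after heparin (20 uM) induction. Substrate: human K18 P301L, 15 uM unlabeled, 0.24 uM labeled. Buffer 100 mM sodium acetate pH 7. 6 hr, 37 C.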
# On the % scale 0 is the no-effect control and ±100 the full control effect; potency means the concentration at half of the fitted maximal effect; tags describe the fitted curve by direction and shape.
# UniProt P10636, sequence (P10636 whole entry, looked up): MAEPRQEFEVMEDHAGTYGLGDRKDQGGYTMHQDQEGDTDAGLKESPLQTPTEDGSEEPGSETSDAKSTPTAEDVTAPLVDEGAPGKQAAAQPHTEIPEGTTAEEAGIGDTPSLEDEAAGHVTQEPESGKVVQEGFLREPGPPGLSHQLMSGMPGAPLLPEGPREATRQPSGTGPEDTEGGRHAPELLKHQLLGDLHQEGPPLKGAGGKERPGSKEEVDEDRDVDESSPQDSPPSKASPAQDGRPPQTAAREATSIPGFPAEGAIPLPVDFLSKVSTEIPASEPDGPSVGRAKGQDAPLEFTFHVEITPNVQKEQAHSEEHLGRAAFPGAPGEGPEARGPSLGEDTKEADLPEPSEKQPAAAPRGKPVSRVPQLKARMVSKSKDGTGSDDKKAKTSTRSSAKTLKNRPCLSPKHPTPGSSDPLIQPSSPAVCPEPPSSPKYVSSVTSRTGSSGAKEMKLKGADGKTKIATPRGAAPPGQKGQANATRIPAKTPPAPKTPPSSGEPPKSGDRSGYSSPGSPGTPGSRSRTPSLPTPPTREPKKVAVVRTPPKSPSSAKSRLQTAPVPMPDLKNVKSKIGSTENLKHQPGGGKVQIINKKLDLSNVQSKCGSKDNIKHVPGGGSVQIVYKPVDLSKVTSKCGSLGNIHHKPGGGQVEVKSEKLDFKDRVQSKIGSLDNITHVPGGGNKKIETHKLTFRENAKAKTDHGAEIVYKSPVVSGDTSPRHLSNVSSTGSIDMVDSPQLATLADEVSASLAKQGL
SMILES,Potency,"activity, negative = inhibition"
CC(C)(C)c1ccc(-c2nc(O)c(CC(=O)O)s2)cc1,"inconclusive [inhibitor, single point]",
CN1CCc2c(sc3c2C(=O)NC(c2cccs2)N3)C1 (centres undefined),"inconclusive [inhibitor, partial curve]",
CC(=O)OC1=C(C#N)Cn2ccc3cccc1c32,,inactive: 1.65%
Cc1ccc(/C=C2/C(=O)N(c3ccccc3)C(=S)N2C)o1,"inconclusive [inhibitor, single point]",
C/C(=N\NC(=O)c1cccc(F)c1)c1cccc(NC(=O)c2ccc(F)cc2)c1,"inconclusive [inhibitor, single point]",
COc1ccc(OCc2nn3c(Cn4cnc5ccccc54)nnc3s2)cc1,,inactive: -0.644%
CC(Oc1ccc(Cl)cc1Cl)c1nc(-c2ccc(NC(=O)c3ccccn3)cc2)no1 (centres undefined),"inconclusive [inhibitor, single point]",
Cc1nc(-c2ccc(C)c(N3CCN(C(=O)Nc4ccc(Br)cc4)CC3)c2)no1,"inconclusive [inhibitor, partial curve]",
Cc1[nH]c2ccccc2c1C(=O)CSC(=S)N1CCCCC1,active: 39.8 µM,
O=C(NCc1ccc2c(c1)OCO2)c1cc(S(=O)(=O)N2CCCCC2)ccc1F,,inactive: 0.0556%
CCc1ccccc1N1C(=O)N(Cc2cccc(Cl)c2)c2ccccc2S1(=O)=O,"inconclusive [inhibitor, partial curve]",
CCOc1ccc(NC(=O)C2CCCN(c3nnc(-n4c(C)ccc4C)s3)C2)cc1 (centres undefined),"inconclusive [inhibitor, single point]",
COc1cc2c3c(c1)/C(=C1/SC(NC(C)=O)=NC1=O)C(=O)N3C(C)(C)C=C2C,"inconclusive [inhibitor, single point]",
O=C(C1CCN(C2CC(=O)N(c3ccc(Cl)cc3)C2=O)CC1)N1CCOCC1 (centres undefined),,inactive: -4.62%
COc1cccc(C(=O)N2CCN(Cc3cn[nH]c3-c3ccc(F)cc3F)CC2)c1,,inactive: -21.9%
COC(=O)CN1C(=S)N(c2ccccc2)C(=O)C1CC(=O)Nc1ccc(Cl)cc1 (centres undefined),"inconclusive [inhibitor, partial curve, poor fit]",
O=C(c1ccco1)N(CCC(c1ccccc1)c1ccco1)Cc1ccco1 (centres undefined),"inconclusive [inhibitor, single point]",
CCc1ccccc1NC(=O)CC(C)n1nc(C)cc1C (centres undefined),,inactive: -7.36%
CCN(CC)CCN(Cc1cc2cc(C)c(C)cc2[nH]c1=O)C(=S)NCc1ccco1,"inconclusive [inhibitor, single point]",
